In patent publication US9801923B2, “Fusion proteins containing insulin-like growth factor-1 and epidermal growth factor and variants thereof and uses thereof” (IGF Oncology, LLC, priority 2014, dated 2017):

Target: IGF receptors (Homo sapiens, UniProt P08069)
Experiment: competition binding of refolded IGF fusion proteins to IGF receptors against radioactive wild type IGF
Details: Ni eluates refolded 3 hours at room temperature, read-out: approximate binding constants (KDs)
Description: 2 ml of each of the original Ni eluates from Example 1 was mixed with about an equal volume of 100 mM glycine, 6 M urea, pH 9.5, concentrated by ultrafiltration in a CENTRICON 3 kDa filter unit, then brought up again in that buffer and concentrated to about 420 ul. Then they were diluted to 2 mg/ml for 403IGF, 764IGF, and 765IGF, and 4 mg/ml for 784IGF and 2.4 mg/ml for 785IGF.
200 ul of each of these was mixed rapidly with 1.8 ml of refold buffer. Refold buffer was 1.4 M urea, 100 mM glycine, 0.5 M NaCl, 19% ethanol, 0.5 mM GSSG, 4 mM GSH, pH 9.5. They were refolded at room temperature for 3 hours, and then tested in a binding assay for competition binding to IGF receptors against […] radioactive wild type IGF (Perkin Elmer, Inc.) For comparison, commercial Long-R3-IGF (LR3IGF) was also tested.

Chain of IGF receptors (P08069 31-736 limits assumed): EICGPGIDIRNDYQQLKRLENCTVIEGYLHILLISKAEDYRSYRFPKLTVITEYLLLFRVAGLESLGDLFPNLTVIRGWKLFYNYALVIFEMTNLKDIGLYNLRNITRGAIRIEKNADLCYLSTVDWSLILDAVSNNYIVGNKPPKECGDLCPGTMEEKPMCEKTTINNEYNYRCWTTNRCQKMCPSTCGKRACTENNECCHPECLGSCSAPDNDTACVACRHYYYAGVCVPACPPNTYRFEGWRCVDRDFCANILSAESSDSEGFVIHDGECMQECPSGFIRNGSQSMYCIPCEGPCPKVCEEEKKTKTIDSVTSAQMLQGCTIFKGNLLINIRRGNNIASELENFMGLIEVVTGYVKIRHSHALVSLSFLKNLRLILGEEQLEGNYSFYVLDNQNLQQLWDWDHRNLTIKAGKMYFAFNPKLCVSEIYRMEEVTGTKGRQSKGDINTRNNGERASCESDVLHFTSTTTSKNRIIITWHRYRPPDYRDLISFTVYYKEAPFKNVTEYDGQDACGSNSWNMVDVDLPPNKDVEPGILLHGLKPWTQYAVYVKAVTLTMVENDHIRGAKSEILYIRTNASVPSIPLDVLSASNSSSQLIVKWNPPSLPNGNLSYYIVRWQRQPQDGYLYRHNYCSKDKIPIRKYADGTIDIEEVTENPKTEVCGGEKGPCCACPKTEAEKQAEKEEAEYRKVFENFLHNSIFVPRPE
Chain of IGF receptors (P08069 741-1367 partner limits assumed): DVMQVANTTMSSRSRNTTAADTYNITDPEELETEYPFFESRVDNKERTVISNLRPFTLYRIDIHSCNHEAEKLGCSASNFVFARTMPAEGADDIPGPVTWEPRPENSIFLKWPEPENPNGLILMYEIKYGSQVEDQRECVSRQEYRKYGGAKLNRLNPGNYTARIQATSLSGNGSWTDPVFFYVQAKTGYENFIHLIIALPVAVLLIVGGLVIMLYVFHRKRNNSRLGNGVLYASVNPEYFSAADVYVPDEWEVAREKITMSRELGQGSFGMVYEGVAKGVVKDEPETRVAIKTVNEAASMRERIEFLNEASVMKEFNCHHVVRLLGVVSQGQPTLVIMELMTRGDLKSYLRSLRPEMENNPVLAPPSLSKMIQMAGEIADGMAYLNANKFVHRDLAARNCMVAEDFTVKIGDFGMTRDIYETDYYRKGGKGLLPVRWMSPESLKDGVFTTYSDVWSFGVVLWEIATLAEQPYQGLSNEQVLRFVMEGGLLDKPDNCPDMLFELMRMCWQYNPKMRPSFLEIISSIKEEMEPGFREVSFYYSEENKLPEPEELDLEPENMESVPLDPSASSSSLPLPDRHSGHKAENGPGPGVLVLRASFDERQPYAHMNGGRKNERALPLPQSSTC

B1: 784IGF: mutTrx-R3IGF fusion protein, SEQ ID NO: 15 (protein)
chain: MVKQIESKTAFQEALDAAGDKLVVVDFSATWCGHCKMIKPFFHSLSEKYSNVIFLEVDVDDSQDVASESEVKSMPTFQFFKKGQKVGEFSGANKEKLEATINELVGSKSGHHHHHHSAKG[about 80 residues omitted here]
  Kd: ~3 nM
